# Results reported in the supplement of paper PMC8728848.
# The list shows a part of the results.
# Columns and labels:
# Assay in all cases: glycan array binding signal (z-score within array); higher = stronger binding
# Settings in all cases: glycan notation: IUPAC condensed, linker removed
# [1] = biological target: Neu5Ac(a2-3)Gal(b1-4)GlcNAc(b1-6)[Gal(b1-3)]GalNAc
# Procedure, shortened: (§1)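 The binding signal is a Z-score computed within each array. Data were drawn from 3228 arrays in the Consortium for Functional Glycomics database, restricted to those with a known protein sequence. Scores were averaged over arrays of the same protein sequence at different concentrations or buffers, and over linkers, and negative values can be taken as non-binding.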
# [2] = biological target: Neu5Ac(a2-3)Gal(b1-4)GlcNAc(b1-6)[Neu5Ac(a2-3)Gal(b1-3)]GalNAc
# Procedure, shortened: as §1
# [3] = biological target: Neu5Ac(a2-3)Gal(b1-4)GlcNAc6S
# Procedure, shortened: as §1
# [4] = biological target: Neu5Ac(a2-3)Gal(b1-4)[Fuc(a1-3)]GlcNAc
# Procedure, shortened: as §1
# [5] = biological target: Neu5Ac(a2-3)Gal(b1-4)[Fuc(a1-3)]GlcNAc(b1-2)Man
# Procedure, shortened: as §1
# [6] = biological target: Neu5Ac(a2-3)Gal(b1-4)[Fuc(a1-3)]GlcNAc(b1-3)Gal
# Procedure, shortened: as §1
# [7] = biological target: Neu5Ac(a2-3)Gal(b1-4)[Fuc(a1-3)]GlcNAc(b1-3)Gal(b1-4)GlcNAc
# Procedure, shortened: as §1
# [8] = biological target: Neu5Ac(a2-3)Gal(b1-4)[Fuc(a1-3)]GlcNAc(b1-3)Gal(b1-4)[Fuc(a1-3)]GlcNAc(b1-3)Gal(b1-4)[Fuc(a1-3)]GlcNAc
# Procedure, shortened: as §1
# [9] = biological target: Neu5Ac(a2-3)Gal(b1-4)[Fuc(a1-3)]GlcNAc(b1-3)GalNAc
# Procedure, shortened: as §1
# [10] = biological target: Neu5Ac(a2-3)Gal(b1-4)[Fuc(a1-3)]GlcNAc(b1-6)[Gal(b1-3)]GalNAc
# Procedure, shortened: as §1
# [11] = biological target: Neu5Ac(a2-3)Gal(b1-4)[Fuc(a1-3)]GlcNAc(b1-6)[Neu5Ac(a2-3)Gal(b1-3)]GalNAc
# Procedure, shortened: as §1
# [12] = biological target: Neu5Ac(a2-3)Gal(b1-4)[Fuc(a1-3)]GlcNAc6S
# Procedure, shortened: as §1
# [13] = biological target: Neu5Ac(a2-3)Gal6S(b1-4)GlcNAc
# Procedure, shortened: as §1
# [14] = biological target: Neu5Ac(a2-3)Gal6S(b1-4)[Fuc(a1-3)]GlcNAc
# Procedure, shortened: as §1
# Neu5Ac(a2-3)GalNAc = biological target: Neu5Ac(a2-3)GalNAc
# Procedure, shortened: as §1
# [15] = biological target: Neu5Ac(a2-3)GalNAc(b1-4)GlcNAc
# Procedure, shortened: as §1
# [16] = biological target: Neu5Ac(a2-3)[GalNAc(b1-4)]Gal(b1-4)Glc
# Procedure, shortened: as §1
# [17] = biological target: Neu5Ac(a2-3)[GalNAc(b1-4)]Gal(b1-4)GlcNAc
# Procedure, shortened: as §1
# [18] = biological target: Neu5Ac(a2-3)[GalNAc(b1-4)]Gal(b1-4)GlcNAc(b1-3)GalNAc
# Procedure, shortened: as §1
# [19] = biological target: Neu5Ac(a2-3)[Neu5Ac(a2-6)]GalNAc
# Procedure, shortened: as §1
# Neu5Ac(a2-6)Gal = biological target: Neu5Ac(a2-6)Gal
# Procedure, shortened: as §1
# [20] = biological target: Neu5Ac(a2-6)Gal(b1-3)GlcNAc(b1-3)[Gal(b1-4)GlcNAc(b1-6)]Gal(b1-4)Glc
# Procedure, shortened: as §1
# Neu5Ac(a2-6)Gal(b1-4)Glc = biological target: Neu5Ac(a2-6)Gal(b1-4)Glc
# Procedure, shortened: as §1
binder,measurement,setting,value
"PA-IL (Pseudomonas aeruginosa), Q05097 (protein) MAWKGEVLANNEAGQVTSIIYNPGDVITIVAAGWASYGPTQKWGPQGDREHPDQGLICHDAFCGALVMKIGNSGTIPVNTGLFRWVAPNNVQGAITLIYNDVPGTYGNNSGSFSVNIGKDQS",glycan array binding signal (z-score),[1],-0.231
same,glycan array binding signal (z-score),[2],-0.241
same,glycan array binding signal (z-score),[3],-0.232
same,glycan array binding signal (z-score),[4],-0.231
same,glycan array binding signal (z-score),[5],-0.228
same,glycan array binding signal (z-score),[6],-0.232
same,glycan array binding signal (z-score),[7],-0.236
same,glycan array binding signal (z-score),[8],-0.21
same,glycan array binding signal (z-score),[9],-0.196
same,glycan array binding signal (z-score),[10],-0.202
same,glycan array binding signal (z-score),[11],-0.204
same,glycan array binding signal (z-score),[12],-0.221
same,glycan array binding signal (z-score),[13],-0.234
same,glycan array binding signal (z-score),[14],-0.234
same,glycan array binding signal (z-score),Neu5Ac(a2-3)GalNAc,-0.217
same,glycan array binding signal (z-score),[15],-0.236
same,glycan array binding signal (z-score),[16],-0.226
same,glycan array binding signal (z-score),[17],-0.225
same,glycan array binding signal (z-score),[18],-0.094
same,glycan array binding signal (z-score),[19],-0.232
same,glycan array binding signal (z-score),Neu5Ac(a2-6)Gal,-0.221
same,glycan array binding signal (z-score),[20],-0.225
same,glycan array binding signal (z-score),Neu5Ac(a2-6)Gal(b1-4)Glc,-0.22
